Read counts are not given, so values of variants with three or more changes are uncertain.
B1: CPEB3 Ribozyme (parent)
chain: UAACAGGGGGCCACAGCAGAAGCGUUCACGUCGCAGCCCCUGUCAGAUUCUGGUGAAUCUGCGAAUUCUGCUGUAUAUCUC

Variants of: B1
Test: self-cleavage, relative activity (ratio to wild type); higher = more cleavage; in vitro, sequencing
In short: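 CPEB3 self-cleaving ribozyme mutant libraries were made by rounds of error-prone PCR, barcoded, and transcribed in vitro with T7 RNA polymerase for 5 hours at 37°C. Cleavage occurred during transcription and a 15 min DNase I step before EDTA stop. RNAs were reverse transcribed with template switching and Illumina-sequenced, with DNA sequencing mapping barcodes to variants. Relative activity is the variant's cleaved/total read fraction divided by wild type's (minimum 5 reads), averaged across three batches.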

Variant | self-cleavage
UAACAGGGGGCCACAGCAGAAGCGUUCACGUCGCAGCCCCUGUCAGUUUCUGGUGUAUCUGCGAAUUCUGCUGUAUAACUC [A47U A56U U78A] | 0.2
UAACAGGGGGCCACAGCAGAAGCGUUCACGUCGCAGCCCCUGUCAGUUUCUGGUGAGUCUGCGAAUUCUGCUGUAUGUCUC [A47U A57G A77G] | 0.21
UAACAGGGGGCCACAGCAGAAGCGUUCACGUCGCAGCCCCUGUCAGUUUCUGGUGAGACUGCGAACUCUGCUGUAUAUCUC [A47U A57G U58A U66C] | 0.23
UAACAGGGGGCCACAGCAGAAGCGUUCACGUCGCAGCCCCUGUCAGUUUCUGGUGAGCCGGCGAAUUCUGCUGUAUAUCUC [A47U A57G U58C U60G] | 0
UAACAGGGGGCCACAGCAGAAGCGUUCACGUCGCAGCCCCUGUCAGUUUCUGGUGAGUCUGCGAAUCCUGCUGUAUAUCUC [A47U A57G U67C] | 0.06
UAACAGGGGGCCACAGCAGAAGCGUUCACGUCGCAGCCCCUGUCAGUUUCUGGUGAGUCUGCGAAUUCUGCCGUAUAUCUC [A47U A57G U72C] | 0.2
UAACAGGGGGCCACAGCAGAAGCGUUCACGUCGCAGCCCCUGUCAGUUUCUGGUGAGUCUGCGAAUUCUGCUGUACAUAUC [A47U A57G U76C C79A] | 0.17
UAACAGGGGGCCACAGCAGAAGCGUUCACGUCGCAGCCCCUGUCAGUUUCUGGUGAUUCCGCGAAUACUGCUGUAUAUCUC [A47U A57U U60C U67A] | 0.1
UAACAGGGGGCCACAGCAGAAGCGUUCACGUCGCAGCCCCUGUCAGUUUCUGGUGAAUCUGCGGAUCCUGCUGUAUAUCUC [A47U A64G U67C] | 0.17
UAACAGGGGGCCACAGCAGAAGCGUUCACGUCGCAGCCCCUGUCAGUUUCUGGUGAAUCUGUGAACUCUGCUGUAUACCUC [A47U C62U U66C U78C] | 0.1
UAACAGGGGGCCACAGCAGAAGCGUUCACGUCGCAGCCCCUGUCAGUUUCUGGUGAAUCUGCGAAUUCUGCUUUAUAUCCC [A47U G73U U80C] | 1.31
UAACAGGGGGCCACAGCAGAAGCGUUCACGUCGCAGCCCCUGUCAGUUACUGGUGAAUCUGCGGAUUCUGCUGUAUAUCUC [A47U U49A A64G] | 0.16
UAACAGGGGGCCACAGCAGAAGCGUUCACGUCGCAGCCCCUGUCAGUUACCGGUGAGUCUGCGAAUUCUGCUGUAUAUCUC [A47U U49A U51C A57G] | 0.2
UAACAGGGGGCCACAGCAGAAGCGUUCACGUCGCAGCCCCUGUCAGUUCCUGGUGAAUCUGCGAAUUCUGCCGUAUAUCUC [A47U U49C U72C] | 0.23
UAACAGGGGGCCACAGCAGAAGCGUUCACGUCGCAGCCCCUGUCAGUUUCAGGUGAAUCUGCGAAUUCUGCUGUAUUUCUC [A47U U51A A77U] | 0.54
UAACAGGGGGCCACAGCAGAAGCGUUCACGUCGCAGCCCCUGUCAGUUUCAGGUGAAUCAGCGAAUUCCGCUGUAUAUCUC [A47U U51A U60A U69C] | 0.14
UAACAGGGGGCCACAGCAGAAGCGUUCACGUCGCAGCCCCUGUCAGUUUCCGGUGAAUCUGCGAAUUCUGCUGUGUAUCUC [A47U U51C A75G] | 0.37

Variant | self-cleavage
UAACAGGGGGCCACAGCAGAAGCGUUCACGUCGCAGCCCCUGUCAGUUUCCGGUGAACCUGCGGAUUCUGCUGUAUACCUC [A47U U51C U58C A64G U78C] | 0.11
UAACAGGGGGCCACAGCAGAAGCGUUCACGUCGCAGCCCCUGUCAGUUUCUGGCGAAUCUGCGUAUUCUGCUGUAUAUCUC [A47U U54C A64U] | 0.54
UAACAGGGGGCCACAGCAGAAGCGUUCACGUCGCAGCCCCUGUCAGUUUCUGGUGAAUCAGCGGAUUCUGCUGUAUAUCUC [A47U U60A A64G] | 0.15
UAACAGGGGGCCACAGCAGAAGCGUUCACGUCGCAGCCCCUGUCAGUUUCUGGUGAAUCAGCGAAUUCUGCUGUAUUUCUC [A47U U60A A77U] | 0.23
UAACAGGGGGCCACAGCAGAAGCGUUCACGUCGCAGCCCCUGUCAGUUUCUGGUGAAUCAGCGAAUCCUGCUGUACAUCUC [A47U U60A U67C U76C] | 0.18
UAACAGGGGGCCACAGCAGAAGCGUUCACGUCGCAGCCCCUGUCAGUUUCUGGUGAAUCCGCGAAUUCUGCUGUAUGUCGC [A47U U60C A77G U80G] | 0.09
UAACAGGGGGCCACAGCAGAAGCGUUCACGUCGCAGCCCCUGUCAGUUUCUGGUGAAUCCGCGAAUCCUGCUGUAUAUCUC [A47U U60C U67C] | 0.14
UAACAGGGGGCCACAGCAGAAGCGUUCACGUCGCAGCCCCUGUCAGAAUCUGGUGGAUCUGCGAAUUUUGCUGUAUAUCUC [U48A A56G C68U] | 0.17
UAACAGGGGGCCACAGCAGAAGCGUUCACGUCGCAGCCCCUGUCAGAAUCUGGUGGAUCCGCGAAUUCUGCUGUAUAUCUC [U48A A56G U60C] | 0.11
UAACAGGGGGCCACAGCAGAAGCGUUCACGUCGCAGCCCCUGUCAGAAUCUGGUGAAUCUGCGGAUCCUGGUGUAUAUCUC [U48A A64G U67C C71G] | 0.12
UAACAGGGGGCCACAGCAGAAGCGUUCACGUCGCAGCCCCUGUCAGAAUCUGGUGAAUCUGCGAGUUCUGCUGUAUACCUC [U48A A65G U78C] | 0.15
UAACAGGGGGCCACAGCAGAAGCGUUCACGUCGCAGCCCCUGUCAGAAACUGGUGGAUCAGCGAAUUCAGCUGUAUAUCUC [U48A U49A A56G U60A U69A] | 0.07
UAACAGGGGGCCACAGCAGAAGCGUUCACGUCGCAGCCCCUGUCAGAACCUGGUGGAUCUGCGAAUUCUGCUGUACGUCUC [U48A U49C A56G U76C A77G] | 0.96
UAACAGGGGGCCACAGCAGAAGCGUUCACGUCGCAGCCCCUGUCAGAACCUGGUGAAUCUGCGAAUUCUGCCGUAUAUCUC [U48A U49C U72C] | 0.19
UAACAGGGGGCCACAGCAGAAGCGUUCACGUCGCAGCCCCUGUCAGAAUCCGGUGAAACUGCGAAUUCAGCUGUAUAUCUC [U48A U51C U58A U69A] | 0.14
UAACAGGGGGCCACAGCAGAAGCGUUCACGUCGCAGCCCCUGUCAGAAUCUGGAGGAUCUGUGAAUUCUGCUGUAUAUCUC [U48A U54A A56G C62U] | 0.2
UAACAGGGGGCCACAGCAGAAGCGUUCACGUCGCAGCCCCUGUCAGAAUCUGGUGAAACUGCGAAUCCUGCUGUAUACCUC [U48A U58A U67C U78C] | 0.39
